Hit rate of the full screen: of about 330,000 compounds, about 300 (0.091%) were called active. Inconclusive results, whose numbers are uncertain, are shown with a selection of clear calls. Calls come from the whole dose curve; as a rule, active = well fitted inhibition curve with a large enough effect; inconclusive = small, poorly fitted or top-dose-only effect, or effect the other way, or another doubt; inactive = no such curve, though single readings can be large or run the other way. Potencies of inconclusive entries are left out as doubtful fits.
These molecules were tested against Lysosomal acid glucosylceramidase (Homo sapiens) (UniProt P04062) (assay: qHTS Assay for Inhibitors and Activators of N370S glucocerebrosidase as a Potential Chaperone Treatment of Gaucher Disease). Details: N370S GC spleen homogenate, 4MU-glucoside fluorescence; activity change, negative = inhibition: at 59.4 µM (top of the series) unless noted.
Potency is the fitted concentration of half-maximal effect.
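Throughout, for activity change, negative = inhibition: 0% = full enzyme activity and -100% = no enzyme basal.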

Row | SMILES | Potency | activity change, negative = inhibition
1 | C/C(=N\NC(=O)c1cc2ccccc2cc1O)c1cccs1 | inactive | 
2 | CC(=O)c1ccc(NC(=O)c2ccc(CSc3ccccc3)o2)cc1 | inconclusive [activator, single point] | 
3 | COc1ccc(C2CC(c3ccccc3)=NN2C(=O)COC(=O)c2cccnc2)cc1 (stereo not drawn) | inactive | 
4 | COc1ccc(NC(=O)c2cc(-c3cc(OC)c(OC)c(OC)c3)nc3ccccc23)cc1OC | inconclusive [activator, single point] | 
5 | O=C(/C=C/Nc1ccc(F)cc1F)c1cccs1 | inactive | 
6 | Cc1ccc(CN2CCc3[nH]c(=S)[nH]c(=O)c3C2)cc1 | inactive | 
7 | COc1ccc2cc(CCC(C)=O)ccc2c1 | inconclusive [inhibitor, single point] | 
8 | CC(=C/c1ccccc1)/C=N/n1c(-c2ccco2)n[nH]c1=S | inactive | 
9 | CC(=O)n1cc([C@@H]2C=C(C(=O)N3CCN(Cc4ccccc4)CC3)O[C@H](OCc3ccc(CO)cc3)C2)c2ccccc21 | inconclusive [inhibitor, partial curve] | 
10 | CC(C)(C)c1ccc(-c2cc(-c3ccccc3O)[nH]n2)cc1 | inconclusive [activator, single point] | 
11 | CC1(C)CN2C(=S)N(c3ccccc3)C(c3ccccc3)N2C1 (stereo not drawn) | inconclusive [activator, full curve, poor fit] | 
12 | COc1ccc(C2c3ccc4ccccc4c3Oc3ncn(CCCN(C)C)c(=N)c32)cc1 (stereo not drawn) | inconclusive [inhibitor, single point] | 
13 | C[C@@H](O)C1NC(=O)[C@H](CCCCN)NC(=O)c2cc([N+](=O)[O-])cc(I)c2NCCC[C@@H](C(N)=O)NC1=O (stereo partly drawn) | inconclusive [activator, partial curve] | 
14 | COc1cc2oc(-c3ccc(O)cc3)cc(=O)c2c(OC)c1O | inconclusive [inhibitor, partial curve] | 
15 | O=C(O)c1ccc(-n2nc(-c3ccccc3)c3ccccc3c2=O)cc1 | inconclusive [inhibitor, partial curve, poor fit] | 
16 | Cc1oc(-c2ccc3c(c2)OCCO3)cc1C(=O)NCC(=O)O | inconclusive [activator, partial curve] | 
17 | COc1ccccc1Nc1nc(-c2cccnc2)cs1 | inactive | 
18 | COc1ccc(N(CC(=O)Nc2ccc(F)c(F)c2)S(=O)(=O)c2c(C)[nH]c(=O)[nH]c2=O)cc1 | inconclusive [inhibitor, full curve, poor fit] | 
19 | CCOC(=O)c1cnn2c(C(F)(F)F)cc(-c3ccco3)nc12 | inactive | 
20 | O=c1oc2cc(O)ccc2c2c1CCCC2 | inconclusive [activator, partial curve] | 
21 | C#CCOCCOCCOCCNc1nc(N2CCN(C(=O)Cn3cc(CCCCN)nn3)CC2)nc(N2CCN(C(=O)[C@H](CCCCN)n3cc(CCC(=O)O)nn3)CC2)n1 | inactive | 
22 | O=c1cc(CN2CCN(S(=O)(=O)c3ccc4c(c3)OCCO4)CC2)c2ccc(O)cc2o1 | inconclusive [activator, partial curve] | 

Row | SMILES | Potency | activity change, negative = inhibition
23 | CC1(C)Cc2c(c(N3CCCC3)nc3sc4c(N5CCN(CCO)CC5)ncnc4c23)CO1 | inconclusive [inhibitor, single point] | 
24 | Cc1cc(NC(=O)Nc2cccc3ccccc23)no1 | inconclusive [activator, partial curve] | 
25 | CCn1c(=O)c(CCC(=O)NCCN2CCOCC2)c(C)c2c(C)nn(-c3cccc(C)c3)c21 | inconclusive [inhibitor, full curve] | 
26 | O=C(NC(=S)Nc1ccccc1)c1cccs1 | inactive | 
27 | COC(=O)c1ccc2[nH]c3cccc(/C(=C/c4ccccc4)c4ccccc4)c3c2c1 | inconclusive [activator, single point] | 
28 | Cc1ccc(S(=O)(=O)c2ccccc2)cc1S | inconclusive [activator, partial curve] | 
29 | CCCCCCCC/C=C\CCCCCCCC(=O)N[C@@H](CO)Cc1ccc(O)cc1 | inconclusive [inhibitor, partial curve] | 
30 | CC(C)c1ccc(/C=N/NC(=O)c2cccc(Cl)c2)cc1 | inconclusive [inhibitor, partial curve] | 
31 | COC(=O)c1ccc(OCC(O)Cn2nnc3ccccc32)cc1 (stereo not drawn) | inactive | 
32 | Fc1ccc(OCCOCCNCC2CCCO2)cc1 (stereo not drawn) |  | inconclusive: 27.8% [activator]
33 | CCc1c(C)c(C#N)c2nc3ccccc3n2c1NCc1ccccn1 | inconclusive [activator, partial curve] | 
34 | Cc1ccc2c(Cl)c(C(=O)NCCc3ccccc3)sc2c1 | inconclusive [activator, partial curve] | 
35 | CCC1Sc2ccc(S(=O)(=O)CCC(=O)NC3CCCCCC3)cc2NC1=O (stereo not drawn) | inconclusive [inhibitor, partial curve, poor fit] | 
36 | O=C(O)c1c(-c2ccccc2)oc2ccc(O)cc12 | inconclusive [activator, single point] | 
37 | CCOC(=O)C1(Cc2ccccc2)CCCN(C(=O)C=C(C)C)C1 (stereo not drawn) | inactive | 
38 | CCCCc1c(O)c2ccccc2[nH]c1=O | inconclusive [activator, partial curve] | 
39 | CC1(c2ccc3ccccc3c2)NC(=O)N(CC(=O)N2CCN(Cc3ccc(C#N)cc3)CC2)C1=O (stereo not drawn) | inconclusive [inhibitor, single point] | 
40 | Cc1nc(C(=O)Nc2ccc(Cl)cc2)sc1C1(C)CC(c2ccccc2)=NO1 (stereo not drawn) | inconclusive [activator, partial curve] | 
41 | Cc1ccc(-c2nnc(Nc3ccc(C(N)=O)cc3)c3ccccc23)cc1S(=O)(=O)NCC1CCCO1 (stereo not drawn) | inactive | 
42 | CC1(C)Cc2c(C#N)c(SCCO)nc(N3CCOCC3)c2CO1 | inactive | 
43 | Cc1nc(Nc2cnc(/C=C/c3cc(C(=O)Nc4cccc(C(F)(F)F)c4)ccc3C)cn2)cc(N2CCNCC2)n1 | inconclusive [activator, full curve] | 
